Source: a compilation of properties of binary mixtures (doi:10.1021/je1011289)
The densities may have been worked out from excess volumes.

Assay: xn = mol fraction of the nth substance listed
Conditions: 101 kPa

c1ccc2c(c1)CCN2 + CC[n+]1ccn(C)c1.N#C[S-]
mass density [kg/m3]
Conditions	x1 = 0.2	x1 = 0.3	x1 = 0.4	x1 = 0.5	x1 = 0.6	x1 = 0.7	x1 = 0.8
298.15 K	–	1109.3	1106.1	–	1099.2	1092.7	–
303.15 K	1110	1106.1	–	1100.9	1095.9	–	–
308.15 K	1106.9	–	–	1097.6	1092.6	1085.8	1076.5
313.15 K	1103.8	1099.9	1096.5	–	1089.2	1082.4	1072.9
318.15 K	1100.8	1096.7	1093.3	1091.1	1085.9	1078.9	1069.3
323.15 K	1097.7	1093.6	1090.1	1087.9	1082.6	–	1065.6

c1ccc2ncccc2c1 + CC[n+]1ccn(C)c1.N#C[S-]
mass density [kg/m3]
Conditions	x1 = 0.2	x1 = 0.3	x1 = 0.4	x1 = 0.5	x1 = 0.6	x1 = 0.7	x1 = 0.8
298.15 K	1117.3	1117.2	–	1116.3	1114	1112.2	1108.4
303.15 K	1114.1	1114.1	1113.8	1113.1	–	–	1104.9
308.15 K	1111	1110.9	–	–	1107.1	1105.3	1101.2
313.15 K	1107.9	1107.7	1107.4	–	1103.7	1101.8	1097.6
318.15 K	1104.7	1104.5	–	1103.3	1100.2	1098.3	–
323.15 K	1101.6	–	1101	1100	1096.8	–	1090.4

CC[n+]1ccn(C)c1.N#C[S-] + c1ccsc1
mass density [kg/m3]
Conditions	x2 = 0.2	x2 = 0.3	x2 = 0.4	x2 = 0.5	x2 = 0.6	x2 = 0.7	x2 = 0.8
298.15 K	–	1115.7	1115	–	1112.2	1106.1	1110.7
303.15 K	1113.3	–	1111.9	–	1108.5	1102.4	1106.7
308.15 K	1110.1	1109	–	–	1104.9	1098.6	–
313.15 K	1106.9	1105.6	1105.5	1103.1	1101.2	1094.7	–
318.15 K	1103.7	1102.3	–	1099.3	1097.6	1090.9	1093.5
323.15 K	1100.5	–	1099.2	1095.5	1094	1087	1088.9

c1cc[nH]c1 + CC[n+]1ccn(C)c1.N#C[S-]
mass density [kg/m3]
Conditions	x1 = 0.2	x1 = 0.3	x1 = 0.4	x1 = 0.5	x1 = 0.6	x1 = 0.7	x1 = 0.8
298.15 K	1103.5	1094.5	1088.6	1073.6	1056.2	1049.2	1028.4
303.15 K	–	1091.3	–	1070.3	1052.8	1045.7	–
308.15 K	1097.2	–	–	1066.9	–	1042.2	1021
313.15 K	1094.1	1085	1079	1063.6	1045.8	1038.8	1017.4
318.15 K	1091	1081.9	1075.8	1060.4	1042.4	–	–
323.15 K	1087.9	1078.8	1072.6	–	–	1031.9	1010.1

CC[n+]1ccn(C)c1.N#C[S-] + c1ccncc1
mass density [kg/m3]
Conditions	x2 = 0.2	x2 = 0.3	x2 = 0.4	x2 = 0.5	x2 = 0.6	x2 = 0.7	x2 = 0.8
298.15 K	1102.1	–	1092.8	1082.3	1072.6	1060.1	1045.2
303.15 K	1098.9	1093.3	1089.5	1078.8	–	1056.3	–
308.15 K	1095.7	–	1086.2	1075.4	1065.5	–	1037.2
313.15 K	1092.5	–	1083	–	1062	1048.8	1033.2
318.15 K	1089.4	1083.6	1079.7	1068.6	–	–	–
323.15 K	1086.2	1080.4	1076.5	1065.3	1055	–	1025.3

CC[n+]1ccn(C)c1.N#C[S-] + O
mass density [kg/m3]
Conditions	x2 = 0.2	x2 = 0.3	x2 = 0.4	x2 = 0.5	x2 = 0.6	x2 = 0.7	x2 = 0.8
298.15 K	1111.2	1110.4	–	1104.2	1099.7	1089.3	1075.8
303.15 K	1108.1	1107.4	1103.5	1101	1096.6	–	1072.5
308.15 K	–	–	–	1097.8	1093.4	1082.8	1069.3
313.15 K	–	1101.2	1097.2	–	1090.2	–	1065.9
318.15 K	–	1098.2	1094.1	1091.5	1087	1076.3	1062.6
323.15 K	–	1095.1	–	1088.3	1083.8	1073.1	1059.1
